# Out of some 340,000 compounds screened, fewer than 10 were called active. The shares of active, inactive and inconclusive entries below differ from those in the screen. Calls follow the shape of the dose curve; as a rule, active = well fitted inhibition curve with a large enough effect in the main read-out, with a control signal flat (not every such curve was filed as active); inconclusive = small, poorly fitted or top-dose-only effect, or effect the other way, or a change in a side signal; inactive = no such curve, though single readings can be large or run the other way. Potencies of inconclusive entries are doubtful fits and often do not repeat. A note “side channel” means that the fit belongs to a control or component signal, not to the main read-out.
# Biological target: Tumor susceptibility gene 101 protein (Homo sapiens) (UniProt Q99816)
# Sequence of UniProt Q99816 (Q99816 whole entry, looked up): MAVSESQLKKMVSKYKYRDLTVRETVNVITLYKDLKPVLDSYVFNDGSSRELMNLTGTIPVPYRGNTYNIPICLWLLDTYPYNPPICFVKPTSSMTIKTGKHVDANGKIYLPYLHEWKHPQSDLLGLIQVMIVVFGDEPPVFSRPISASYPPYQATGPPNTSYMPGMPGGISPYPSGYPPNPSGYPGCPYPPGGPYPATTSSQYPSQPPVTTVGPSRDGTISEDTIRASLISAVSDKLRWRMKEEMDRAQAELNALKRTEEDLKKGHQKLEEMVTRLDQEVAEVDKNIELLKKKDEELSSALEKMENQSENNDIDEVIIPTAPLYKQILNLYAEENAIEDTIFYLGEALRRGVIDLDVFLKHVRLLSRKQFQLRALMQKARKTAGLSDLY
# Test: qHTS Assay for Iinhibitors of HIV-1 Budding by Blocking the Interaction of PTAP/TSG101
# Conditions: Fluorescence polarization, FITC-PTAP peptide / Tsg101 binding; series mostly up to 115 µM
# Outline: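 Compounds were pin-transferred onto Tsg101 binding domain (10 uM final) in HEPES pH 7.5 buffer, then FITC-PTAP peptide was added at 50 nM final. After 20 min at RT, polarization reported peptide displacement across a qHTS concentration series.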
# Potency is read from the fitted curve at half-maximal effect; tags tell the direction and shape of the fitted curve or compound fluorescence and quenching.
row,Compound,Potency
1,CC(C)c1ccc2c(c1)c(SC(C)(C)C)c(CC(C)(C)C(=O)O)n2Cc1ccc(Cl)cc1,"inconclusive: 31.6 µM [quencher, side channel, partial curve, poor fit]"
2,C/C(=C\C=C(C#N)C#N)c1cc(C#N)c(N)o1,"inconclusive: 44.7 µM [fluorescent, side channel, partial curve, poor fit]"
3,COc1cc(-c2noc(C)c2C#Cc2ccsc2)cc(OC)c1OC,inactive
4,COc1cc(/C=C2\Oc3cc(O)ccc3C2=O)ccc1O,"inconclusive: 50.1 µM [fluorescent, side channel, partial curve, poor fit]"
5,CCN(CC)C(=O)CN1CCC(n2c(C)nc3cc(C(F)(F)F)ccc32)CC1,"inconclusive: 70.8 µM [fluorescent, side channel, partial curve, poor fit]"
6,Cc1cc(C=C2C(=O)c3ccccc3C2=O)c(C)n1-c1ccc(Cl)cc1,"inconclusive: 89.1 µM [fluorescent, side channel, single point]"
7,Clc1cccc(Cl)c1Cn1nnc(N2CCCC2)n1,inactive
8,CNC(=O)NC(=O)C(C)OC(=O)c1c2c(nc3ccccc13)/C(=C/c1cccs1)CC2 (centres undefined),"inconclusive: 50.1 µM [fluorescent, side channel, partial curve, poor fit]"
9,O=C(Cc1coc2cc3c(cc12)CCC3)NC1CCCCCCC1,"inconclusive: 89.1 µM [quencher, side channel, single point]"
10,COc1cc(-c2cc(-c3ccc(N)cc3)[nH]c(=O)c2C#N)cc(OC)c1OC,"inconclusive: 79.4 µM [fluorescent, side channel, partial curve]"
11,O=C(N/N=C/c1sc(N2CCOCC2)nc1-c1ccccc1)c1cccc(S(=O)(=O)N2CCOCC2)c1,"inconclusive: 79.4 µM [fluorescent, side channel, partial curve, poor fit]"
12,Cc1ccc(S(=O)(=O)N2[C@@H](c3ccc(C(C)(C)C)cc3)C(C(=O)O)=CC[C@H]2c2ccc(C(C)C)cc2)cc1,"inconclusive: 17.8 µM [quencher, side channel, partial curve, poor fit]"
13,CC(C)(C)C(=O)/C=c1\s/c(=C\c2ccc(-c3ccc([N+](=O)[O-])cc3)o2)c(=O)n1CC(=O)NC(N)=O,"inconclusive: 10 µM [fluorescent, side channel, full curve, poor fit]"
14,COCCn1c(C)cc(/C=C2/SC(=O)N(C(C)C(=O)OC)C2=O)c1C (centres undefined),inactive

# — PubChem BioAssay AID493005 (National Center for Advancing Translational Sciences (NCATS), 2010)
